Test results published in PubChem BioAssay AID1508642 (National Center for Advancing Translational Sciences (NCATS), 2021).
Out of some 43,000 compounds screened, about 200 (0.47%) were called active. Inconclusive results (about 12%) are left out. Calls follow the shape of the dose curve; as a rule, active = well fitted cell-killing curve with a large enough effect; inconclusive = small, poorly fitted or top-dose-only effect, or effect the other way; inactive = flat fitted curve, though single readings scatter. The list shows a part of the results.

Assay: Cell viability qHTS assay in S16 Pmp22-F2sN cells; also: nearly all actives have a fitted effect of over 65% in size
Details: S16 Pmp22-F2sN Schwann cells (luciferase reporters placed in the Pmp22 gene) viability, CellTiter-Glo, 24 h; series mostly up to 57.5 µM; activity change, negative = cytotoxicity: at the top concentration
Summary of the method: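 Rat S16 Schwann reporter line, 24 h treatment with library compounds delivered at 23 nL per well. Cell viability by CellTiter-Glo luminescence.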
% is scaled to controls: 0 for no effect and ±100 for the full control effect.

SMILES | activity change, negative = cytotoxicity
Cc1ccc(NC(=O)Cn2nc(C)n3cccc3c2=O)c(C)c1 | inactive: 5.21%
COc1ccc(Nc2nc3c(S(=O)(=O)c4ccccc4)nnn3c3ccsc23)cc1OC | inactive: 13.5%
COc1ccc(CCNC(=O)c2cn(C)c3ccc(S(=O)(=O)N(C)C4CCCCC4)cc3c2=O)cc1OC | inactive: -12.3%
CC(=O)Nc1ccc(S(=O)(=O)Nc2cc(-c3cn4ccccc4n3)ccc2C)cc1 | inactive: -2.69%
COc1ccc(/C=C/c2nc(C#N)c(NCCc3ccccc3)o2)cc1OC | inactive: 4.36%
Cc1ccc(C)c(Cn2c(=O)cc(C)c3c(C)nn(-c4cccc(F)c4)c32)c1 | inactive: -2.7%
COc1ccc(NC(=O)c2cnc(Nc3ccc(C)c(Cl)c3)c3ccccc23)cc1OC | inactive: 15.8%
COc1cccc(-n2c(=O)c3c(C)c(C)sc3n(CC(=O)NCc3ccccc3)c2=O)c1 | inactive: 25.4%
COc1ccc(-c2nsc(NC(=O)C(C)Oc3ccc(Cl)c(C)c3)n2)cc1 (centres undefined) | inactive: -15.5%
CC(C)CCNC(=O)C1CCN(c2nc3ccc(Cl)cc3[nH]2)CC1 | inactive: 1.02%
COc1ccc(C)cc1NC(=O)c1ccc(=O)n(Cc2ccccc2)c1 | inactive: 0.737%
COc1ccc(NC(=O)Cn2c(=O)n(-c3ccc(C)cc3)c(=O)c3c2cnn3C)cc1 | inactive: 15.3%
O=C(Nc1ccc2nc(SCC(=O)N3CCCC3)sc2c1)c1cccc(Cl)c1 | inactive: 0.461%
COC(=O)c1cc2occc2n1Cc1nc(-c2cccc(Cl)c2)oc1C | inactive: 4.27%
Cc1sc2ncn(CC(=O)N3CCN(c4ccc(Cl)cc4)CC3)c(=O)c2c1S(=O)(=O)N1CCN(c2ncccn2)CC1 | inactive: -9.76%
CC(C)(C)c1ccc(C(=O)NC2(C(F)(F)F)C(=O)Nc3c2c(=O)[nH]c(=O)n3-c2ccccc2)cc1 (centres undefined) | inactive: 6.47%
Cc1cccn2c(=O)c3cc(C(=O)NCc4cccnc4)c(=N)n(CCCO)c3nc12 | inactive: -4.71%
CN1CCc2nc3sc(C(=O)Nc4ccccc4OC(F)(F)F)c(N)c3cc2C1 | inactive: -17.7%
CC1=Nc2cc(C(=O)NCCc3ccccc3)ccc2Sc2c(C)ccc(C)c21 | inactive: -2.66%
Cc1ccc(Cn2c(SCC(=O)C(C)(C)C)nc3ccsc3c2=O)cc1 | inactive: 0.08%
CN1CCN(c2nc3c(S(=O)(=O)c4ccccc4)nnn3c3ccsc23)CC1 | inactive: 0.686%
Cc1ccc(-n2c(SCC(=O)Nc3cccc(C)c3)nc3c(oc4ccccc43)c2=O)cc1 | inactive: -15.4%
CCC(=O)Nc1ccc2nc(SCCOc3ccc(C)cc3)sc2c1 | inactive: 2.84%
CCS(=O)(=O)c1ncc(N(Cc2ccc(F)cc2)Cc2ccco2)c(C(=O)Nc2cc(C)ccc2C)n1 | inactive: -1.11%

SMILES | activity change, negative = cytotoxicity
CCOC(=O)C1CCN(C(=O)CN2c3ccc(CC)cc3-c3ccccc3S2(=O)=O)CC1 | inactive: 6.05%
CCCn1c(NCc2ccc(N(CC)CC)cc2)nc2ccccc21 | inactive: -31.3%
CCCN(CCC)C(=O)Cn1c(=O)n(-c2ccc(OC)cc2)c(=O)c2ccc(C(=O)NCc3ccc(C)cc3)cc21 | inactive: -0.612%
COc1cccc(-c2ccc3c(N)c(C(=O)Nc4cc(F)ccc4F)sc3n2)c1 | inactive: 20.5%
CCOC(=O)C1CCCN(C(=O)c2ccc(-n3ccc4ccccc43)s2)C1 (centres undefined) | inactive: 6.98%
CC(=O)c1cccc(NS(=O)(=O)c2ccc3c(c2)NC(=O)CC(=O)N3)c1 | inactive: 4.87%
CCN(Cc1ccccc1)C(=O)c1cc2c(s1)-c1c(C)cccc1OC2 | inactive: 1.67%
Cc1ccc(Cl)cc1NC(=O)Cn1c(=O)n(Cc2ccc(C(=O)NCc3ccc4c(c3)OCO4)cc2)c(=O)c2ccccc21 | inactive: -1.1%
CC(=O)N1c2c(cc(Br)cc2S(=O)(=O)N2CCN(c3cccc(Cl)c3)CC2)CC1C (centres undefined) | inactive: -0.813%
COc1cccc(N2CCN(C(=O)c3cnn(-c4ccc(C)cc4C)c3C3CCN(C(=O)OC(C)(C)C)CC3)CC2)c1 | inactive: -28.1%
CCOc1ccc(-c2csc(/C(C#N)=C/c3ccc(Br)cc3)n2)cc1 | inactive: 15%
O=c1c2cnn(-c3ccc(Cl)cc3)c2ncn1Cc1cccc(C(F)(F)F)c1 | inactive: -1.75%
COc1ccc(NC(=O)CSc2cc(-c3ccccc3)nc(C)n2)cc1 | inactive: -0.379%
O=c1cc(CSc2n[nH]c(-c3ccccc3)n2)[nH]c2ccccc12 | inactive: -15.1%
COc1ccccc1NC(=O)CSc1oc(-c2cccs2)nc1S(=O)(=O)c1ccccc1 | inactive: -2.77%
COc1cc(NC(=O)c2cc3c(=O)n(Cc4cccs4)ccc3nc2C)cc(OC)c1OC | inactive: -11.1%
CC(Oc1ccccc1Cl)C(=O)N1CCN(CCc2ccccn2)CC1 (centres undefined) | inactive: 0.11%
CCc1cccc(NC(=O)Cn2nc(-c3cc(C)ccc3C)ccc2=O)c1 | inactive: 1.55%
Cc1ccc(CN2C(=O)C3(c4ccccc42)N(c2cccc(C(F)(F)F)c2)C(=O)CS3(=O)=O)cc1 (centres undefined) | inactive: 3.82%
COc1ccc(OC)c(NC(=O)CN2C(=O)CCc3cc(S(=O)(=O)N4CCCCC4)ccc32)c1 | inactive: -23%
O=C(NC1CCCCC1)c1ccc2c(c1)N(Cc1ccc(Cl)cc1)C(=O)c1ccccc1S2(=O)=O | inactive: 12.6%
O=C(CN1C(=O)COc2ccc(S(=O)(=O)N3CCOCC3)cc21)N1CCN(c2ccc(F)cc2)CC1 | inactive: 9.92%
CC(Sc1nc(=O)cc(N)n1CCc1ccccc1)C(=O)Nc1ccccc1C#N (centres undefined) | inactive: 0.873%
CN(C)CCn1c2c(c(SCC(=O)Nc3ccc(F)cc3F)nc1=O)CCC2 | inactive: 19.1%

SMILES | activity change, negative = cytotoxicity
CCc1ccc2oc(C(=O)Nc3sc4c(c3C(=O)NC)CCCC4)cc(=O)c2c1 | inactive: 6.33%
O=C(Nc1ccc(Cl)cc1F)c1cc(S(=O)(=O)NCc2ccc3c(c2)OCO3)ccc1F | inactive: 3.9%
CCOc1ccc(C(=O)Nc2cccc(OCc3cc(=O)n4cc(C)sc4n3)c2)cc1 | inactive: 12.8%
CCCCOC(=O)c1cccc(NC(=O)c2cc3ccccc3o2)c1 | inactive: -15.5%
COc1cccc(CNCCSc2nnnn2C)c1OCc1ccccc1F | inactive: -9.36%
COc1cccc(N2CC(NC(=O)c3ccc(S(=O)(=O)N4CCCCC4)cc3)CC2=O)c1 (centres undefined) | inactive: 12.2%
COc1ccc(-c2nc3ccccc3o2)cc1NC(=O)COc1ccc(C(C)(C)C)cc1 | inactive: 3.13%
O=[N+]([O-])c1ccc(C(c2sc3nc(-c4ccco4)nn3c2O)N2CCN(c3cccc(Cl)c3)CC2)cc1 (centres undefined) | inactive: 0.564%
Cc1ccc(C)c(Cn2nc(-c3cc(C)ccc3C)ccc2=O)c1 | inactive: 1.92%
CCOC(=O)c1c(S(=O)(=O)N2CCCC(C(=O)N3CCN(c4ccccc4)CC3)C2)c(C)n(C)c1C (centres undefined) | inactive: -0.671%
Cc1ccccc1OC(=O)CSc1nnc(-c2cccs2)o1 | inactive: -3.17%
Cn1c(-n2cccc2)c(-c2c(-c3ccccc3)[nH]c3c2c(=O)[nH]c(=O)n3C)c(=O)[nH]c1=O | inactive: 7.71%
Cc1ccc2c(c1)N(CC(=O)NCCc1ccc(Cl)cc1)C(=O)c1cccnc1O2 | inactive: -0.149%
CCOC(=O)c1[nH]c(C)c(C(=O)NC(CC)Cc2ccccc2)c1C (centres undefined) | inactive: -17.9%
O=C(CN1C(=O)COc2ccc(S(=O)(=O)NC3CCCC3)cc21)Nc1ccc(Cl)cc1 | inactive: -0.655%
O=C(Nc1cccc(-c2cn3cccnc3n2)c1)c1cc(Br)ccc1Cl | inactive: -21.5%
Cc1ccc(C)c(NC(=O)Cn2c(=O)n(CC3CCCO3)c(=O)c3ccccc32)c1 (centres undefined) | inactive: 5.67%
CCN1CCN(c2ncnc3c2cnn3-c2ccc(C)c(C)c2)CC1 | inactive: -4.97%
CC(=O)Nc1ccc(NC(=O)CSc2nc3ccccc3nc2N2CCCCC2)cc1 | inactive: 25.8%
COc1ccc(C(=O)Nc2cc(C)c(O)c(-c3nc4ccccc4s3)c2)cc1OC | inactive: -10.2%
CCOc1ccc(CNC(=O)c2ccc(CS(=O)Cc3ccc(Cl)cc3)o2)cc1 (centres undefined) | inactive: 12.5%
CCN(Cc1ccccc1)C(=O)CN1C(=O)COc2ccc(S(=O)(=O)NC3CCCC3)cc21 | inactive: 2.22%
COc1cccc(CNC(=O)c2ccc3c(c2)nc2n3CCOC2)c1 | inactive: 5.68%
Cc1ccc(-c2nnn3c2nc(NCC(C)c2ccccc2)c2ccccc23)cc1 (centres undefined) | inactive: -20.5%

SMILES | activity change, negative = cytotoxicity
Cc1ccc(CN2COc3ccc4c(-c5ccccc5)cc(=O)oc4c3C2)cc1 | inactive: 7.19%
Cc1cc(C)nc(-n2nc(C)c3c2N(C)C(=O)CC3c2ccc(Cl)cc2)n1 (centres undefined) | inactive: -0.476%
Cc1c(C(=O)Nc2cccc(Cl)c2)oc2ccc(S(=O)(=O)N3CCCCCC3)cc12 | inactive: -0.57%
Cc1nnc(NC(=O)c2nc(SCc3ccccc3F)ncc2Cl)s1 | inactive: 0.21%
COc1ccccc1NC(=O)CN1C(=O)C2(SCC(=O)N2c2ccc(F)c(F)c2)c2ccccc21 (centres undefined) | inactive: 8.34%
O=C(NCc1ccccc1)C(=O)Nc1ccc2nc3n(c(=O)c2c1)CCCCC3 | inactive: 11.6%
CCc1cc(C(=O)NCc2ccccc2)no1 | inactive: 0.0206%
CC(NC(=O)Cc1ccc(NC(=O)N2CCSc3ncccc32)cc1)c1ccccc1 (centres undefined) | inactive: 1.64%
Cc1cc(-c2ccc(S(=O)(=O)Nc3ccccc3F)s2)on1 | inactive: -0.628%
CCc1ccc(NC(=O)CCCc2nnc3n(CC(C)C)c(=O)c4sccc4n23)cc1 | inactive: 3%
Cc1nnc(NC(=O)CSc2nccn2Cc2ccc(F)cc2)s1 | inactive: -0.526%
CC(=O)Nc1ccc(S(=O)(=O)NCCc2cn3ccsc3n2)cc1 | inactive: -1.02%
CCC(=O)N1CCc2cc(OC)c(OC)cc2C1COc1ccccc1OC (centres undefined) | inactive: -0.286%
Cc1cccc(OCc2ccc(-c3nc(C#N)c(NCc4cccnc4)o3)o2)c1 | inactive: -28.8%
COC(=O)c1ccc(C2c3c(-c4ccccc4O)n[nH]c3C(=O)N2Cc2ccncc2)cc1 (centres undefined) | inactive: -26%
COc1ccc(-c2nc(CNS(=O)(=O)c3ccc(Br)cc3)cs2)cc1 | inactive: -6.63%
CC(C)c1nn2c(=O)cc(COC(=O)c3ccccc3NC(=O)COc3ccccc3)nc2s1 | inactive: -1.3%
Cc1ccc(CNC(=O)C2CCN(S(=O)(=O)c3ccc(F)cc3)CC2)cc1 | inactive: -5.12%
CC(=O)N1CCc2c(sc3c2c(=O)n(-c2ccc(C)cc2)c(=O)n3Cc2c(F)cccc2Cl)C1 | inactive: 10.8%
COc1ccccc1CNC(=O)c1cccn1-c1nnc(N2CCCCC2)s1 | inactive: 2.7%
COc1ccc(CN2CCc3c(c(=O)n4ncc(C(=O)N5CCN(c6ccc(F)cc6)CC5)c4n3C)C2)cc1 | inactive: -29.9%
COC(=O)c1c(NC(=O)Cc2coc3cc(C)ccc23)sc2c1CCCC2 | inactive: -2.21%
